# Measured values from paper PMC7467691, “Meiotic chromosome synapsis depends on multivalent SYCE1-SIX6OS1 interactions that are disrupted in cases of human infertility” (Science Advances, 2020).
# These are yes or no findings as the source states them, for the method shown. Some results given as binding are weak or reduced against the parent protein; the word gives no strength. For part of these data: Tags and fused reporters may be left off the sequences shown.
# T1: SIX6OS1 1–262, yeast two-hybrid fusion (human) (UniProt Q8N1H7)
# T1 sequence: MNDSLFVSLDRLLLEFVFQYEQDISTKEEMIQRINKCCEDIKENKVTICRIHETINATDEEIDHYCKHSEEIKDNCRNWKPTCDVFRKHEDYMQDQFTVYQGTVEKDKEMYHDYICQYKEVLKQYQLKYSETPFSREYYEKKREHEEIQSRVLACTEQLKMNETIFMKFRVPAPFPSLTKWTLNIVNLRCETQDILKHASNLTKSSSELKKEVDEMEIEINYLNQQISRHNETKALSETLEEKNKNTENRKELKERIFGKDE
# T2: SIX6OS1 1–22, yeast two-hybrid fusion (human) (UniProt Q8N1H7)
# T2 sequence: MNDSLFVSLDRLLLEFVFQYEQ
# T3: SIX6OS1 1–262 Δ10–21, yeast two-hybrid fusion (human) (UniProt Q8N1H7)
# T3 sequence: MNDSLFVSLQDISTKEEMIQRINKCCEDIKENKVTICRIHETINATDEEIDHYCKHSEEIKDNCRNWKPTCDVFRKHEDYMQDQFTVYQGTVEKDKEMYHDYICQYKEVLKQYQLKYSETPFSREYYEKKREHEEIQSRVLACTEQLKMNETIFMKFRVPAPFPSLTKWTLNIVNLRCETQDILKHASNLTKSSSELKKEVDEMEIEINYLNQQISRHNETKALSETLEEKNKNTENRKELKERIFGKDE
# T4: SIX6OS1N (human SIX6OS1 amino acids 1 to 67) (human) (UniProt Q8N1H7)
# T4 sequence: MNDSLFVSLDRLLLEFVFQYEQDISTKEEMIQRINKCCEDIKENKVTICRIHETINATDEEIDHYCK
# B1: SYCE1 25–315, yeast two-hybrid fusion (domain or fragment, UniProt Q8N0S2 25-315)
# chain: GQDTSSQKIEDLMEMVQKLQKVGSLEPRVEVLINRINEVQQAKKKANKDLGEARTICEALQKELDSLHGEKVHLKEILSKKQETLRILRLHCQEKESEAHRKHTMLQECKERISALNLQIEEEKNKQRQLRLAFEEQLEDLMGQHKDLWDFHMPERLAKEICALDSSKEQLLKEEKLVKATLEDVKHQLCSLCGAEGPSTLDEGLFLRSQEAAATVQLFQEEHRKAEELLAAAAQRHQQLQQKCQQQQQKRQRLKEELEKHGMQVPAQAQSTQEEEAGPGDVASPKPLKGE
# B2: SYCE1POF (amino acids 25 to 240), yeast two-hybrid fusion (domain or fragment, UniProt Q8N0S2 25-240)
# chain: GQDTSSQKIEDLMEMVQKLQKVGSLEPRVEVLINRINEVQQAKKKANKDLGEARTICEALQKELDSLHGEKVHLKEILSKKQETLRILRLHCQEKESEAHRKHTMLQECKERISALNLQIEEEKNKQRQLRLAFEEQLEDLMGQHKDLWDFHMPERLAKEICALDSSKEQLLKEEKLVKATLEDVKHQLCSLCGAEGPSTLDEGLFLRSQEAAATV
# B3: full-length SYCE1, yeast two-hybrid fusion (protein, UniProt Q8N0S2 1-351)
# chain: MAGRSLTSKAEPTAGAVDRAEKAGGQDTSSQKIEDLMEMVQKLQKVGSLEPRVEVLINRINEVQQAKKKANKDLGEARTICEALQKELDSLHGEKVHLKEILSKKQETLRILRLHCQEKESEAHRKHTMLQECKERISALNLQIEEEKNKQRQLRLAFEEQLEDLMGQHKDLWDFHMPERLAKEICALDSSKEQLLKEEKLVKATLEDVKHQLCSLCGAEGPSTLDEGLFLRSQEAAATVQLFQEEHRKAEELLAAAAQRHQQLQQKCQQQQQKRQRLKEELEKHGMQVPAQAQSTQEEEAGPGDVASPKPLKGERPGAAHQAGPDVLIGQEDTLHPDLSPRGFQEIKELF
# B4: SYCE1POF (human SYCE1 amino acids 1 to 240, truncated product of the POF mutation c.613C>T, p.Gln241*) (domain or fragment, UniProt Q8N0S2 1-240, looked up)
# chain: MAGRSLTSKAEPTAGAVDRAEKAGGQDTSSQKIEDLMEMVQKLQKVGSLEPRVEVLINRINEVQQAKKKANKDLGEARTICEALQKELDSLHGEKVHLKEILSKKQETLRILRLHCQEKESEAHRKHTMLQECKERISALNLQIEEEKNKQRQLRLAFEEQLEDLMGQHKDLWDFHMPERLAKEICALDSSKEQLLKEEKLVKATLEDVKHQLCSLCGAEGPSTLDEGLFLRSQEAAATV
# notes: SYCE1, human, amino acids 1 to 240, relative to the canonical 351-amino acid isoform; product of the premature stop codon p.Gln241*; The purified material held about equal amounts of the full protein and a degradation product; source: also co-expressed with SIX6OS1N
# B5: SYCE1core (human SYCE1 amino acids 25 to 179) (domain or fragment, UniProt Q8N0S2 25-179, looked up)
# chain: GQDTSSQKIEDLMEMVQKLQKVGSLEPRVEVLINRINEVQQAKKKANKDLGEARTICEALQKELDSLHGEKVHLKEILSKKQETLRILRLHCQEKESEAHRKHTMLQECKERISALNLQIEEEKNKQRQLRLAFEEQLEDLMGQHKDLWDFHMPE
# notes: Synaptonemal complex central element protein 1 (SYCE1), human, amino acids 25 to 179, numbers relative to the canonical 351-amino acid isoform; also called SYCE1 structural core; SYCE1 25–179; source: co-expressed with SIX6OS1N for the complex
# B6: full-length SYCE1 (human) (natural protein, UniProt Q8N0S2 1-351, looked up)
# chain: B3 chain
# notes: SYCE1, human, full length; canonical 351-amino acid isoform; source: E. coli BL21(DE3), purified; co-expressed with SIX6OS1N for the complex
# Biological target: T1, SIX6OS1 1–262, yeast two-hybrid fusion (human)
# Experiment: two-hybrid; Matchmaker Gold; pGBKT7 in Y187 mated with pGADT7 in Y2H gold; SD/-Trp/-Leu/-Ade/-His with X-alpha-gal, growth of blue colonies, 5 days at 30°C
row,binding,Binder
1,binds,B1
2,binds,B2
3,binds,B3

# Biological target: T2, SIX6OS1 1–22, yeast two-hybrid fusion (human)
# Experiment: as above
row,binding,Binder
1,no binding,B1
2,no binding,B2
3,no binding,B3

# Biological target: T3, SIX6OS1 1–262 Δ10–21, yeast two-hybrid fusion (human)
# Experiment: as above
row,binding,Binder
1,binds,B1
2,no binding,B2
3,binds,B3

# Biological target: T4, SIX6OS1N (human SIX6OS1 amino acids 1 to 67) (human)
# Experiment: co-purification; bacterial coexpression; reciprocal affinity chromatography (Ni-NTA, amylose), ion exchange, tags removed by TEV, further ion exchange and size exclusion chromatography
row,binding,Binder
1,binds,B4
2,binds,B5
3,binds,B6
